# Laboratory results reported in PubChem BioAssay AID504333 (National Center for Advancing Translational Sciences (NCATS), 2011).
# Out of some 360,000 compounds screened, about 16,000 (4.4%) were called active. Inconclusive means that the source gave no clear call. Such entries were picked first, then a sample of the others. Calls follow the shape of the dose curve; as a rule, active = well fitted inhibition curve with a large enough effect; inconclusive = small, poorly fitted or top-dose-only effect; inactive = no such curve, though single readings can be large or run the other way. Potencies of inconclusive entries are doubtful fits and often do not repeat.
# Target: Bromodomain adjacent to zinc finger domain protein 2B (Homo sapiens) (UniProt Q9UIF8)
# Experiment: qHTS Assay for Inhibitors of BAZ2B; also: nearly all actives have a fitted effect of over 60% in size
# Conditions: AlphaScreen BAZ2B-H3K14Ac peptide displacement; activity change, negative = inhibition: at 114 µM (top of the series)
# How it was run: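 Complex of BAZ2B and biotin-H3K14Ac (50 nM apiece) forms over 30 min at RT, then faces library compounds up to 110 uM for another 30 min; AlphaScreen beads added, 20 min dark incubation, luminescence read.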
# % is scaled to controls: 0 for no effect and ±100 for the full control effect; potency is read from the fitted curve at half-maximal effect; tags tell the direction and shape of the fitted curve.
# UniProt Q9UIF8, sequence (Q9UIF8 whole entry, looked up, the tested form may be a part): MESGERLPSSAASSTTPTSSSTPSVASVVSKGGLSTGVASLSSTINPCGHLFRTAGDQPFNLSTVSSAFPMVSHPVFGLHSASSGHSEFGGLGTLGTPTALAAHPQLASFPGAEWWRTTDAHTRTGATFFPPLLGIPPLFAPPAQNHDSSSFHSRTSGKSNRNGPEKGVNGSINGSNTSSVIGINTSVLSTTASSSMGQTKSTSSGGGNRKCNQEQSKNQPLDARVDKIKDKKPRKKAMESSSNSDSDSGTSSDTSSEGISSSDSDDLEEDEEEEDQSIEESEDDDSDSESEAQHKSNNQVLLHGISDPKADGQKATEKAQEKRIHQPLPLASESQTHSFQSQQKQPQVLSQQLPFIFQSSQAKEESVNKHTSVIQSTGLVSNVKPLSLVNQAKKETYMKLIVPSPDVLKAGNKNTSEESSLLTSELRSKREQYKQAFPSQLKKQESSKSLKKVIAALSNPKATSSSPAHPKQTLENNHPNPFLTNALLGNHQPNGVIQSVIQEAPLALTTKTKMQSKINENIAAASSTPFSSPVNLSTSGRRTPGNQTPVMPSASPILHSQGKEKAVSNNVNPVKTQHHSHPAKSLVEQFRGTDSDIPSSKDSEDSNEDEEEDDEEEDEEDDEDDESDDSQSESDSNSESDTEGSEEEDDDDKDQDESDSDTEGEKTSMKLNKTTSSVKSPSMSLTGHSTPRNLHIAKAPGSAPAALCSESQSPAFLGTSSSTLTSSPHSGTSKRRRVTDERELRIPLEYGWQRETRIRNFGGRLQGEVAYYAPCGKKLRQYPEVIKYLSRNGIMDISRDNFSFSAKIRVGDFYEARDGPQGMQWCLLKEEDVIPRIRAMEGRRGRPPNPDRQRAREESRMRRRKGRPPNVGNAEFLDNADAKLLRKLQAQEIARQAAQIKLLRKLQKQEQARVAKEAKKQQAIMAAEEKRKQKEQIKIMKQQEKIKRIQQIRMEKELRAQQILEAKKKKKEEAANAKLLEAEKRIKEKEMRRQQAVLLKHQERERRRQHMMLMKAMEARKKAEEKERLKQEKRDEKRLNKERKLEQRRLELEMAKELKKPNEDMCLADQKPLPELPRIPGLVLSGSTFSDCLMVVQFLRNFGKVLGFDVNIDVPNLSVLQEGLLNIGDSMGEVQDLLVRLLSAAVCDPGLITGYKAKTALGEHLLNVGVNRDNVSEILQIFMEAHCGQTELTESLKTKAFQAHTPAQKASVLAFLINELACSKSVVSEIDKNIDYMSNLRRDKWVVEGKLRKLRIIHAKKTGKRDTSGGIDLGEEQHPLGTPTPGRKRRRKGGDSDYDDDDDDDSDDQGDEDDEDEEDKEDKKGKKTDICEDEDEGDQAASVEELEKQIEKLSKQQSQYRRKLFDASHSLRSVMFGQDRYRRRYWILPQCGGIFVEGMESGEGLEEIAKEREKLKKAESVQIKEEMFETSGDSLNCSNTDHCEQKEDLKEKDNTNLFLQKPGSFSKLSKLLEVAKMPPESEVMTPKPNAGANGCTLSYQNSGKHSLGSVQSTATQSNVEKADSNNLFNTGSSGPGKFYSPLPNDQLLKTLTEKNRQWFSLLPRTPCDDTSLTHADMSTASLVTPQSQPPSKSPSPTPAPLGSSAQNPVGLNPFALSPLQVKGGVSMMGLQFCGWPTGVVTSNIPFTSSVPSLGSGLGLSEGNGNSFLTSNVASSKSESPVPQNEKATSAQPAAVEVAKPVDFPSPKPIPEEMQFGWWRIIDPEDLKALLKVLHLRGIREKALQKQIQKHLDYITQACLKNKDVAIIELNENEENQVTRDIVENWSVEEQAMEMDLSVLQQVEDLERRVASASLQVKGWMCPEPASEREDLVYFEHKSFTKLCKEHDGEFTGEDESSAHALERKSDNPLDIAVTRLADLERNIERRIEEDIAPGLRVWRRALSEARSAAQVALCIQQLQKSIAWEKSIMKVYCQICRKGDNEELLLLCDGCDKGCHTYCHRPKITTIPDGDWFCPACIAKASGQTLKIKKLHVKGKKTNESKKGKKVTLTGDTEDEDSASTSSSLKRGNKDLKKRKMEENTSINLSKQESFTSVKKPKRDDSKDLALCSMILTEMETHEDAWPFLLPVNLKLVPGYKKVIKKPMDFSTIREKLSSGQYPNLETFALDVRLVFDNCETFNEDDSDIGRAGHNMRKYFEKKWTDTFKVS
SMILES,"activity change, negative = inhibition",Potency
C/C(=N\Nc1ccc([N+](=O)[O-])cc1)c1cc2ccccc2o1,inactive: -22.9%,–
Cc1ccc(-c2nn(-c3ccc(F)cc3)cc2C(=O)N(C)CC(=O)Nc2ccc(N3CCOCC3)cc2)cc1,inactive: -5.23%,–
Cc1cc(Cl)ccc1NS(=O)(=O)c1ccc2c(c1)CC(C)N2C(=O)C1CCC1 (stereo unspecified),inactive: -3.28%,–
CCO/C=C1\C(=O)N(CC)c2ccccc21,inactive: -0.565%,–
S=C(NCc1cccnc1)Nc1ccc(Oc2ccccc2)cc1,–,"inconclusive: 79.4 µM [inhibitor, single point]"
CC(C1CC2CCC1C2)n1c(-c2cccs2)n[nH]c1=S (stereo unspecified),–,"inconclusive: 79.4 µM [inhibitor, single point]"
COc1cccc(NC(=O)Cn2c(=O)n(CC(=O)NCCc3ccccc3)c(=O)c3sccc32)c1,inactive: -7.99%,–
Cc1cc(O)c(/C=N/OCc2ccc(Cl)cc2Cl)c(=O)o1,inactive: 0.964%,–
CCC/C(O)=C1\C(=O)CCCC1=NCCc1c(C)[nH]c2ccc(C)cc12,–,"inconclusive: 39.8 µM [inhibitor, partial curve]"
O=C(CSc1nnnn1-c1ccccc1)Nc1ncc2c(n1)CC(c1ccco1)CC2=O (stereo unspecified),–,"inconclusive: 79.4 µM [inhibitor, single point]"
CCOC(=O)c1cc(-c2ccc(OC)cc2)n(CCC(=O)NC2CCN(Cc3ccccc3)CC2)c1C,–,active: 39.8 µM
CC(Cc1c[nH]c2ccccc12)C(=O)NCc1ccco1 (stereo unspecified),–,active: 50.1 µM
C=CCN(CC=C)S(=O)(=O)c1ccc(C(=O)Nc2nnc(COC)o2)cc1,–,"inconclusive: 89.1 µM [inhibitor, single point]"
Cc1cc2c(NC(=O)CC(C)(C)CC(=O)O)cccc2nn1,–,active: 50.1 µM
CC(=O)c1cccc(NC(=O)Cn2cc3c(n2)CCCC3)c1,inactive: -9.23%,–
CCCc1nc(Nc2nc3ccccc3o2)nc(C)c1C(=O)OCC,inactive: 8.71%,–
CCOc1cc(C2C(C(=O)OC)=C(C)NC3=C2C(=O)c2ccccc23)c(Br)cc1O (stereo unspecified),–,active: 22.4 µM
Nc1nonc1-n1nnc(C(=O)N/N=C/c2cccc(O)c2)c1CN1CCCC1,inactive: -19.5%,–
CCN1C(=O)c2ccc(C(=O)Nc3ccc(O)cc3C)cc2C1=O,–,"inconclusive: 89.1 µM [inhibitor, single point]"
CCOC(=O)N1CCN(C(=O)CNC2CCCCCCC2)CC1,–,active: 50.1 µM
Clc1nc(Oc2ccccc2)nc(-c2cn(-c3ccccc3)c3ccccc23)n1,–,"inconclusive: 79.4 µM [inhibitor, single point]"
Cc1ccc(N2CCN(C(=S)c3ccc(-c4ccccc4[N+](=O)[O-])o3)CC2)cc1,–,active: 10 µM
COc1ccccc1C1CCN(c2ccc([N+](=O)[O-])c(OC)c2)CC1,–,"inconclusive: 20 µM [inhibitor, full curve]"
Cc1cc(C(=O)OCC(=O)NC2CCCCC2)c(C)o1,–,"inconclusive: 89.1 µM [inhibitor, single point]"
O=C(CCC1N=C2c3ccccc3N=C(SCC(=O)NCc3ccco3)N2C1=O)NCc1ccco1 (stereo unspecified),–,active: 50.1 µM
Cn1c(NC(=O)c2ccc(Cl)cc2)c(-c2ccccn2)c(=O)c2ccccc21,–,"inconclusive: 89.1 µM [inhibitor, single point]"

SMILES,"activity change, negative = inhibition",Potency
Cc1nnc(NC(=O)CSc2nnc(CCc3nc4ccccc4[nH]3)n2C)s1,–,"inconclusive: 79.4 µM [inhibitor, single point]"
COC(=O)c1cc(OC)nc(OC)c1,inactive: 4.2%,–
O=[N+]([O-])c1cccc(CSc2ncnc3ccccc23)c1,–,"inconclusive: 39.8 µM [inhibitor, partial curve]"
O=C(NCc1ccccc1Cl)c1ccc(NC(=O)N2CCSc3ncccc32)cc1,inactive: -11.4%,–
COc1cccc(N2CCN(C(=O)c3cc4c(=O)n(Cc5ccco5)ccc4nc3C)CC2)c1,–,"inconclusive: 50.1 µM [inhibitor, partial curve, poor fit]"
O=C(O)c1ccc2ncsc2c1,–,active: 20 µM
CCOC(=O)CC1C(=O)NCCN1C(=S)Nc1ccccc1 (stereo unspecified),inactive: 1.12%,–
N#C/C(=C\c1c[nH]c2ccccc12)C(=O)NC1CC1,inactive: -8.45%,–
O=C(Nc1cccc(Cl)c1N1CCOCC1)c1cc([N+](=O)[O-])ccc1N1CCOCC1,–,"inconclusive: 56.2 µM [inhibitor, partial curve]"
Oc1[nH]c2ccccc2c1C=Nc1ccc2c(c1)OCO2,–,"inconclusive: 35.5 µM [inhibitor, partial curve]"
O=C(Nc1ccc(C(=O)N2CCC(O)(c3ccc(Cl)c(C(F)(F)F)c3)CC2)cc1)c1ccc(Br)o1,–,"inconclusive: 79.4 µM [inhibitor, single point]"
CC(C)Cc1nnc(NC(=O)CC(C)c2ccccc2)s1 (stereo unspecified),–,"inconclusive: 89.1 µM [inhibitor, single point]"
CCOC(=O)c1c(S(=O)(=O)NCC(=O)N2CCN(c3cccc(OC)c3)CC2)c(C)n(C)c1C,–,"inconclusive: 56.2 µM [inhibitor, partial curve]"
CCOc1ccc(Cl)cc1/C=N/NC(N)=O,inactive: 7.88%,–
Fc1ccc(N2CCN(/C=C/c3nnnn3-c3ccccc3)CC2)cc1,–,"inconclusive: 79.4 µM [inhibitor, single point]"
O=C1Nc2cc(C(=O)N3CCN(c4ccccc4F)CC3)ccc2NC1CSCc1ccccc1F (stereo unspecified),inactive: -30.4%,–
O=C(CSc1nc(-c2ccc(F)cc2)nc2c1Cc1ccccc1O2)Nc1ccc(C(=O)O)cc1,–,active: 7.94 µM
Cc1ccc(N=Nc2c(O)ccc3n[nH]nc23)cc1,–,"inconclusive: 25.1 µM [inhibitor, partial curve]"
NC(=O)C1CCN(c2nc(-c3cc4ccccc4o3)cs2)CC1,–,"inconclusive: 44.7 µM [inhibitor, partial curve]"
Cc1cccc(C)c1NC(=O)CN(C)C(=O)CSCc1c(C)noc1C,inactive: 4.75%,–
CCCOc1ccc(S(=O)(=O)N2C(=O)CC(=O)N(Cc3ccc(OCC)cc3)C2=O)cc1,inactive: -24.2%,–
O=c1c2ccccc2sc2nc(C3CCCCC3)n(Cc3ccco3)c(=O)c12,–,"inconclusive: 79.4 µM [inhibitor, single point]"
Cc1cc(OCCCCn2ccnc2)cc(C)c1Cl,–,"inconclusive: 28.2 µM [inhibitor, partial curve]"
CC(C)NC(=O)CN1CCN(C(=O)CCl)CC1,–,"inconclusive: 89.1 µM [inhibitor, single point]"
N#CCC(=O)c1ccccc1Oc1ccc(Cl)cc1,–,"inconclusive: 89.1 µM [inhibitor, single point]"
O=C(/C=C/c1ccco1)c1ccc(O)cc1,–,"inconclusive: 56.2 µM [inhibitor, partial curve, poor fit]"

SMILES,"activity change, negative = inhibition",Potency
CCOc1cc(C(=O)Nc2ccc(S(=O)(=O)Nc3cc(OC)nc(OC)n3)cc2)cc(OCC)c1OCC,inactive: 0.766%,–
CCOC(=O)C1CCCN(C/C(O)=C(\C#N)c2nc(-c3ccc(Cl)cc3)cs2)C1 (stereo unspecified),–,"inconclusive: 50.1 µM [inhibitor, partial curve]"
COCCNC(=O)C(OC(=O)c1cc2oc(C)cc2n1C)C(C)C (stereo unspecified),–,active: 79.4 µM
C=CCn1c(-c2ccccc2)c[nH]c1=S,inactive: -33.8%,–
COc1ccc(OC)c(CNc2sc3c(c2C(=O)Nc2cc(OC)ccc2OC)CCCC3)c1,–,active: 22.4 µM
CCC(C)n1c(=S)[nH]c2c(sc3ccc([N+](=O)[O-])cc32)c1=O (stereo unspecified),–,"inconclusive: 44.7 µM [inhibitor, partial curve]"
CCCCCOC(=O)c1ccc(OC(=O)c2sc3ncn(Cc4cccc(F)c4)c(=O)c3c2C)cc1,inactive: 12%,–
CCOC(=O)c1cc(S(=O)(=O)N2CCN(c3ccc(F)cc3)CC2)[nH]n1,–,"inconclusive: 63.1 µM [inhibitor, partial curve, poor fit]"
Cc1ccc(C)c(N2CCN(CCCNC(=O)c3nnc(Cc4ccc(F)cc4Cl)o3)CC2)c1,–,"inconclusive: 22.4 µM [inhibitor, full curve]"
Cc1cc(Br)ccc1OCCN1CCCC1,–,"inconclusive: 89.1 µM [inhibitor, single point]"
Nc1n[nH]c(-c2ccccc2)n1,inactive: -5.14%,–
Cc1ccc(C2C3=C(CCCC3=O)Nc3[nH]c(=S)[nH]c(=O)c32)cc1 (stereo unspecified),–,active: 79.4 µM
O=C(C1CCCN(Cc2ccccc2F)C1)N1CCCC1 (stereo unspecified),–,active: 56.2 µM
CC(=O)Nc1ccc(C(=O)/C=C/c2ccco2)cc1,–,active: 56.2 µM
CCCOc1ccc(NC(=O)C2CC(=O)N/C(=N/N=C(C)/C=C/c3ccc(N(C)C)cc3)S2)cc1 (stereo unspecified),–,"inconclusive: 35.5 µM [inhibitor, partial curve]"
CC(=O)Nc1cccc(-c2csc(N)n2)c1,–,"inconclusive: 79.4 µM [inhibitor, single point]"
Cc1ccc(C(=O)NC(=S)Nc2ccc(N3CCOCC3)cc2)c(C)c1,–,active: 22.4 µM
Clc1ccc2[nH]c3c(c2c1)CNCC3,–,"inconclusive: 70.8 µM [inhibitor, single point]"
NCCNC(=O)c1c(O)c2cccc3c2n(c1=O)CCC3,–,"inconclusive: 79.4 µM [inhibitor, single point]"
OC(CNCc1ccccn1)c1ccccc1 (stereo unspecified),–,active: 22.4 µM
COc1ccc(CCNc2nc3c(c(=O)n(C)c(=O)n3C)n2Cc2ccccc2Cl)cc1OC,inactive: -2.46%,–
CCOC(=O)C1=C(N)n2c(s/c(=C\c3ccco3)c2=O)=C(C(=O)OC(C)C)C1c1ccco1 (stereo unspecified),–,"inconclusive: 39.8 µM [inhibitor, partial curve]"
O=C(CSc1nnc(-c2ccc(Cl)cc2)n1Cc1ccco1)Nc1ccc2c(c1)OCCO2,inactive: -1.13%,–
Cc1cccn2c(Nc3ccccc3)c(-c3ccccn3)nc12,–,active: 17.8 µM
